Series [1] has as its target T1, N-terminally His6-tagged Psu^wt (pull-down bait) (Enterobacteria phage P4, UniProt P05460 1-190).
T1 sequence: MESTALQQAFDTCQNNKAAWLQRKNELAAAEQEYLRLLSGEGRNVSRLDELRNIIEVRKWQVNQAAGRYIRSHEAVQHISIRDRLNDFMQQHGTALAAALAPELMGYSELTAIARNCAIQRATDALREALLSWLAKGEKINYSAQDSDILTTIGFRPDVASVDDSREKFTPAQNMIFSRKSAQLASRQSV
Description: pull-down.

The series “cryo-EM structure” deals with the molecule itself. Description: cryo-EM structure.

Values joined by “and” are separate entries in the source; they are usually repeats but may differ in a detail not shown here. Identical values can stand only once.

B1: transcription termination factor ρ^Y197A co-produced with His6-Psu^wt (pull-down prey) (enzyme)
chain: not shown
On to B1, for which, in series [1], the “ρ pulled down (% of total, (E/(FT+W+E))x100)” value is around 25%.

B2: transcription termination factor ρ variant P167L (ρ^P167L), purified (enzyme)
chain: not shown
Broadly, the stoichiometry N is the number of molecules, sites or subunits per partner or assembly. In the case of B2, the “stoichiometry N” value in the series “cryo-EM structure” was 7 and 6.

(Values after article doi:10.1101/2023.06.22.546067 (bioRxiv, 2023).)
